# Test results as given in PubChem BioAssay AID686978 (National Center for Advancing Translational Sciences (NCATS), 2013).
# In all, about 420,000 compounds went through this assay and about 64,000 (15%) were called active. Inconclusive results, whose numbers are uncertain, are shown with a selection of clear calls. The call rests on the fitted dose curve; in most records, active means well fitted inhibition curve with a large enough effect; inconclusive means small, poorly fitted or top-dose-only effect; inactive means flat fitted curve, though single readings scatter. No potency is given beside an inconclusive call; the fits are too rough.
# Experiment: qHTS for Inhibitors of human tyrosyl-DNA phosphodiesterase 1 (TDP1): qHTS in cells in absence of CPT; further: nearly all actives have a fitted effect of over 55% in size
# Settings: DT40 Tdp1-/- hTDP1 cells, no CPT, ATP luminescence, 48 h; activity change, negative = growth inhibition: at 46.2 µM (top of the series) unless noted
# Procedure, shortened: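 Chicken DT40 Tdp1-/- cells complemented with human TDP1, screened without camptothecin (DMSO vehicle only), 400 cells/well. Compounds pin-transferred, cells incubated at 37 °C for at least 48 hr. Growth read as ATP-dependent luminescence (CellTiter-Glo, 30 min at RT).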
# On the % scale 0 is the no-effect control and ±100 the full control effect; potency means the concentration at half of the fitted maximal effect; tags describe the fitted curve by direction and shape.
Compound,Potency,"activity change, negative = growth inhibition"
OC(CNCCc1ccc(C(F)(F)F)cc1)COC(c1ccccc1)c1ccccc1 (configuration not stated),"inconclusive [inhibitor, partial curve, poor fit]",–
Cc1cc2c(cc1S(=O)(=O)NCc1ccc(N(C)C)cc1)OCC(=O)N2,inactive,–
COc1ccc(C(O)(CCC(C)C)C(CN2CCOCC2)c2ccc(Cl)cc2)cc1 (configuration not stated),active: 14.6 µM,–
Cc1csc(SCC(=O)Nc2ncc(Cl)c(C)c2Cl)n1,"inconclusive [inhibitor, partial curve]",–
CC(Oc1ccccc1)C(=O)Nc1nc2ccc(S(N)(=O)=O)cc2s1 (configuration not stated),"inconclusive [inhibitor, single point]",–
CN(C)S(=O)(=O)c1cccc(NC(=O)CN2C(=O)NC(Cc3c[nH]c4ccccc34)C2=O)c1 (configuration not stated),"inconclusive [inhibitor, partial curve, poor fit]",–
CNc1nc(N)c(C(=O)Nc2cc(C)on2)s1,"inconclusive [inhibitor, partial curve, poor fit]",–
O=C(NCc1nnnn1-c1ccc(F)cc1)C(=O)c1c[nH]c2ccccc12,"inconclusive [inhibitor, single point]",–
Cc1c(CCO)c(=O)[nH]n1C(=O)c1c(F)cccc1F,"inconclusive [inhibitor, single point]",–
Cc1ccc(CN2CCC(CNc3ncnc4onc(-c5ccc(Cl)cc5)c34)CC2)cc1,active: 16.4 µM,–
CC1(c2ccc(Cl)cc2)CC(C)(C)N(C(=O)c2ccccc2)c2ccccc21 (configuration not stated),"inconclusive [inhibitor, single point]",–
CC(=O)Nc1nc(C)c(-c2nc3ccc([N+](=O)[O-])cc3[nH]2)s1,–,inactive: -29.1%
CC1(C(=O)NCc2ccc(Cl)cc2)CCN1C(=O)c1cccc(F)c1 (configuration not stated),"inconclusive [inhibitor, single point]",–
N#C/C(=C\c1c(Oc2ccc(Cl)cc2)nc2ccccn2c1=O)C(=O)NC1CCS(=O)(=O)C1 (configuration not stated),"inconclusive [inhibitor, partial curve, poor fit]",–
COc1ccc(S(=O)(=O)N(CC(=O)NCc2ccccn2)c2ccc(Cl)cc2)cc1,"inconclusive [inhibitor, partial curve, poor fit]",–
COc1ccc(N(CC(=O)NC(C)c2ccccc2)S(=O)(=O)c2c(C)noc2C)cc1 (configuration not stated),"inconclusive [inhibitor, single point]",–
CC(C)C(=O)N1CCCC1(C)C(=O)Nc1cccc(Oc2ccccc2)c1 (configuration not stated),"inconclusive [inhibitor, single point]",–
